This is an account of results in PubChem BioAssay AID1508624 (National Center for Advancing Translational Sciences (NCATS), 2021).

Hit rate of the full screen: of about 48,000 compounds, about 120 (0.25%) were called active. Not shown: some 4% with an inconclusive outcome. Calls come from the whole dose curve; as a rule, active = well fitted activation curve with a large enough effect; inconclusive = small, poorly fitted or top-dose-only effect, or another doubt; inactive = no such curve, though single readings can be large or run the other way. Some of the results follow.

A short description of this experiment: Primary qHTS for Identification of Small Molecule Activators of Huntingtin-Antisense Promoter Activity. Note: nearly all actives have a fitted effect of over 55% in size. The conditions noted are these: HEK293 HTT-AS promoter firefly luciferase reporter (activity 0% = vehicle and -100% = no light), 24 h; series mostly up to 57.5 µM; activity change, positive = activation: at the top concentration. The method in brief:
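Luminescence was read after Dual-Glo reagent and a 10 min room-temperature incubation. Values were normalized to vehicle (0% activity) and zero RLU (-100% activity). Reporter HEK293 cells had been exposed to compounds (up to 57.5 uM final) for 24 h.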
(Quantitative high-throughput screening tests each substance at several concentrations.)
Take `Cc1ccccc1NC(=O)CSc1nc2ccc(NC(=O)CCc3ccccc3)cc2s1`: the “activity change, positive = activation” value was inactive: -17.1%.

Regarding `COC(=O)c1sccc1S(=O)(=O)N(CC(=O)Nc1ccccc1C)c1ccc(Cl)cc1`, the “activity change, positive = activation” value is inactive: -27.8%.

For `COc1ccc(N(CC(=O)N2CCN(c3ccccc3F)CC2)S(=O)(=O)c2c(C)noc2C)cc1`, the “activity change, positive = activation” value is inactive: -13.2%.

For the molecule `COc1ccccc1-c1nc2c(c(SCc3cc(C)ccc3C)n1)Cc1c(CO)cnc(C)c1O2`, the “activity change, positive = activation” value is inactive: -35%.

Turning to `Cc1ccc(CNC(=O)c2cc3c(=O)oc4ccc(C)cc4c3s2)cc1`, the “activity change, positive = activation” value was inactive: -8.97%.

For the molecule `CCCNC(=O)Cn1nc(-c2ccc(C)c(C)c2)c2cnc3ccc(OC)cc3c21`, the “activity change, positive = activation” value was inactive: -25.5%.

Turning to `CN1CCc2cccc3c2[C@H]1Cc1ccc(O)c(O)c1-3`, the “activity change, positive = activation” value is inactive: -1.62%.

As to `C[C@H](NC(=O)Cc1cc(F)cc(F)c1)C(=O)N[C@H](C(=O)OC(C)(C)C)c1ccccc1`, the “activity change, positive = activation” value is inactive: -12.3%.

Turning to `COc1ccccc1NC(=O)Cn1cnc2ccc(S(=O)(=O)N3CCC(C)CC3)cc2c1=O`, the “activity change, positive = activation” value is inactive: -18.5%.

As to `COc1ccc2oc(=O)c(C(=O)NCCc3c(C)[nH]c4ccc(C)cc34)cc2c1`, the “activity change, positive = activation” value is inactive: -28.1%.

For `CN(C)c1ccc(O)c2c1C[C@H]1C[C@H]3[C@H](N(C)C)C(=O)C(C(N)=O)=C(O)[C@@]3(O)C(=O)C1=C2O`, the activity change, positive = activation entry is “inactive”.

With `Cc1ccc(NC(=O)C2CCCN(C(=O)c3cnn(-c4ccccc4)c3-n3cccc3)C2)cc1` (stereo not given), the “activity change, positive = activation” value is inactive: -38%.

Turning to `COc1ccc(NC(=O)Cn2c(=O)n(Cc3ccco3)c(=O)c3sc4ccccc4c32)c(OC)c1`, the “activity change, positive = activation” value is inactive: -24.8%.

With `Cc1cc(OCC(=O)N(Cc2ccc(N(C)C)cc2)Cc2ccco2)cc(C)c1Cl`, the “activity change, positive = activation” value was inactive: -35.2%.

With `CCOC(=O)c1ccc(OC(=O)c2cn(-c3ccc(C)cc3)c(=O)c3ccccc23)cc1`, the “activity change, positive = activation” value was inactive: -21.1%.

Regarding `Cc1nn(-c2ccccc2)c(-n2cccc2)c1C(=O)N1CCN(c2ccccc2)CC1`, the “activity change, positive = activation” value was inactive: -21%.

As to `COc1ccc(CNC(=O)c2cc3sccc3n2Cc2ccc(F)cc2)cc1`, the “activity change, positive = activation” value was inactive: -30%.

For the molecule `COCCCN1C(=O)c2[nH]nc(-c3cc(C)ccc3O)c2C1c1ccc(F)cc1` (stereo not given), the “activity change, positive = activation” value was inactive: -21.3%.

For the molecule `Cc1ccccc1NC(=O)C(Cc1ccccc1)N1Cc2ccccc2C1=O` (stereo not given), the “activity change, positive = activation” value is inactive: -1.02%.

As to `COc1ccc(CNCCC(c2ccc(C)cc2)c2ccco2)cc1` (stereo not given), the “activity change, positive = activation” value was inactive: -24.8%.

Consider `Cc1cccc(OCC(=O)Nc2ccc(S(=O)(=O)Nc3onc(C)c3C)cc2)c1C`, for which the “activity change, positive = activation” value was inactive: -15.3%.

For `CC(C)CCSc1nnc2n(-c3ccccc3)c(=O)c3c4c(sc3n12)CC(C)CC4` (stereo not given), the “activity change, positive = activation” value is inactive: -24.2%.

On to `CCOC(=O)c1c(C)[nH]c(C)c1S(=O)(=O)NCC(=O)NCc1cccc(Br)c1`, for which the “activity change, positive = activation” value is inactive: -8.7%.

As to `Cc1cc(C)nc(-n2nc(C)c3c2N(Cc2ccccc2C)C(=O)CC3c2ccc(Cl)cc2)n1` (stereo not given), the “activity change, positive = activation” value was inactive: -20.9%.

In the case of `COC(=O)c1ccccc1N(C)S(=O)(=O)c1cc2c3c(c1)CC(=O)N3CCC2`, the “activity change, positive = activation” value was inactive: -9.08%.

Regarding `CCc1ccc(NC(=O)Cn2c(=O)nc(-c3ccccc3F)c3cc(Cl)ccc32)cc1`, the “activity change, positive = activation” value is inactive: 22.9%.

Take `O=C(Nc1ccc(Oc2ccccc2)cc1)c1ccc(F)c(S(=O)(=O)N2CCN(c3ccccc3F)CC2)c1`: the “activity change, positive = activation” value is inactive: -44.4%.

With `Cc1ccc2cc3cc(C(=O)N4CCN(c5ccccc5)CC4)sc3nc2c1`, the “activity change, positive = activation” value is inactive: 16%.

In the case of `COc1cccc(NC(=O)/C(C#N)=C/c2ccc(-c3ccc(C)cc3)o2)c1`, the “activity change, positive = activation” value is inactive: -20.9%.

Take `O=C(Cn1cc(S(=O)(=O)Cc2cccc(Cl)c2)c2ccccc21)NCc1ccccc1Cl`: the “activity change, positive = activation” value was inactive: -34%.

For `COc1ccc(C(=O)NCc2nc(-c3cccc(C)c3)no2)cc1OC`, the “activity change, positive = activation” value is inactive: -26.5%.

As to `COc1cccc(C(=O)COC(=O)c2cc(-c3cccs3)nc3ccccc23)c1`, the “activity change, positive = activation” value is inactive: -15.6%.

`Cc1cc(NS(=O)(=O)c2cn(C)c(C)n2)ccc1Br`: the “activity change, positive = activation” value is inactive: 7.43%.

In the case of `COc1cccc(CNC(=O)CCc2c(C)nc3c4c(C)cc(C)nc4nn3c2C)c1`, the “activity change, positive = activation” value was inactive: -11.4%.

With `Cc1ccccc1OCC(=O)Nc1nnc(SCc2cc(=O)n3cc(Cl)ccc3n2)s1`, the “activity change, positive = activation” value is inactive: -2.83%.

As to `Cc1ccc(C)c(CN2C(=O)c3ccccc3S(=O)(=O)c3ccc(C(=O)NCCc4ccc(Cl)cc4)cc32)c1`, the “activity change, positive = activation” value was inactive: -23.5%.

Consider `CCc1ccccc1NC(=O)C1CCN(c2nc3ccccc3[nH]2)CC1`, for which the “activity change, positive = activation” value is inactive: -4.73%.

For `Cc1ccc(CCNc2nc3ccccc3c3nc(-c4cccnc4)nn23)cc1`, the “activity change, positive = activation” value is inactive: -8.73%.

For the molecule `Cc1ccc(NC(=O)c2cccc(NC(=O)N3CCSc4ncccc43)c2)cc1F`, the “activity change, positive = activation” value is inactive: 9.77%.

For the molecule `CCOc1ccc(CNC(=O)c2ccc(NC(=O)N3CCSc4ncccc43)cc2)cc1`, the “activity change, positive = activation” value is inactive: -9.55%.

On to `CCCN1C(=O)c2oc3cc(C)cc(C)c3c(=O)c2C1c1ccc(F)cc1` (stereo not given), for which the “activity change, positive = activation” value is inactive: -10.9%.

Regarding `CCN(CC)CCCNC(=O)CCc1c(C)nc2c(c1C)c(=O)n(C)c(=O)n2C`, the “activity change, positive = activation” value is inactive: -11.8%.

With `Cc1ccc(C)c(NC(=O)c2cnc3sc(N4CCOCC4)nn3c2=O)c1`, the “activity change, positive = activation” value was inactive: -2.97%.

On to `COc1ccc(-c2cc(C(F)(F)F)nc(SCC(=O)Nc3ccc(O)cc3)n2)cc1OC`, for which the “activity change, positive = activation” value was inactive: -9.23%.

For `CCCCOCCOC(=O)c1cccnc1`, the “activity change, positive = activation” value is inactive: -0.142%.
